Source: ChEMBL document CHEMBL4888484, “Replenishing the malaria drug discovery pipeline: Screening and hit evaluation of the MMV Hit Generation Library 1 (HGL1) against asexual blood stage Plasmodium falciparum ,using a nano luciferase reporter read-out” (2022)
In all, about 150,000 compounds went through this assay and about 540 (0.36%) showed an effect of 50% or more. This is one part of the list.

The compounds below were run on Plasmodium falciparum (assay: Primary screen in NF54 nanoGlo assay, in single point, at 2uM, 72h; a lower Z score goes with more inhibition). Conditions: timepoint 72 hour.
Type: functional, Erythrocyte

Structure (SMILES) | % Inhibition | Z score
COc1ccc(-c2csc(C)n2)cc1S(=O)(=O)Nc1ccc(F)cc1 | -10% | 1.32
COCC(=O)Nc1cc(C(=O)N[C@@H](C)Cn2ccc3ccccc32)c2c(c1)nc(C1CCC1)n2C | -11% | 1.6
COc1ccc(CNC(=O)CCc2nnc3c4cc(-c5ccc(Cl)cc5)nn4ccn23)c(OC)c1 | -2% | 0.23
O=C(N[C@@H]1CCC[C@@H]1n1ccnc1)[C@H](O)c1ccccc1Cl | 27% | -3.48
COc1ccc(-c2nc3ccc(C(=O)NCCN4CCCCC4)cc3nc2-c2ccc(OC)cc2)cc1 | 5% | -0.71
O=C(O)c1sc(NC[C@H]2CCCO2)nc1C(F)(F)F | 8% | -1.05
C#CCN(C)CC(=O)NC1CCCCC1C (stereo not drawn) | 3% | -0.36
Cc1csc(C(=O)NCc2cc(C)ncn2)c1 | -3% | 0.64
C[C@H]1Cc2cc(Cn3ccnc3-c3ccc(C#CCO)s3)ccc2O1 | -10% | 1.28
COc1ccc([C@H]2CN(C(=O)c3cc(-c4ccccc4)on3)C[C@@H]2N)cc1 | -7% | 0.9
O=C1CCC(CCC(=O)N[C@H]2CC[C@@H](C(=O)NC3CCCCC3)C2)=NN1 | -1% | 0.08
CCCCn1nc(COC)nc1-c1cc2cc(OC)ccc2[nH]1 | -19% | 1.95
COc1cccc(CC(=O)Nc2ccc(N3CCOCC3)nc2)c1 | -9% | 1.11
Cc1ccc(C(=O)Nc2cccc(-c3noc(C4CCCC4)n3)c2)cc1NC(=O)c1ccco1 | -12% | 2.06
O=C(NC1CCCCC1)N1CCCN(c2nc3cc(Br)ccc3n3cccc23)CC1 | 8% | -1.4
COc1ccc(-n2ccnc2CN(C)CC2(CO)CCOCC2)cc1 | -21% | 1.82
CCc1nc(NS(=O)(=O)c2cc(Cl)sc2Cl)no1 | 35% | -5.1
CN(CC(=O)N1CC[C@H](O)C1)S(=O)(=O)c1ccc(Br)cc1 | -6% | 1.14
C[C@H](NC(=O)C1CC(=O)N(c2ccccc2)C1)C(=O)Nc1ccc2c(c1)OCO2 (stereo partly drawn) | 2% | -0.27
O=C(Nc1ccc(F)c(-c2nnc(-c3ccccc3)o2)c1)Nc1ccccc1C(F)(F)F | 7% | -0.79
COc1ccc([C@@H](NCc2ncccc2F)C2CC2)c(F)c1 | 0% | 0.09

Structure (SMILES) | % Inhibition | Z score
c1ccc2[nH]c(-n3nc([C@H]4CCOC4)nc3-c3ccoc3)nc2c1 | -7% | 1.02
COc1ccc2c(c1)CCc1c(C(=O)Nc3cc(Cl)ccc3C)n[nH]c1-2 | -3% | 0.53
COC(=O)c1cc(NC(=O)N2C[C@H](C)OC(C)(C)C2)cn1C | -13% | 1.35
O=C(NCc1ccno1)c1ccccc1C(=O)c1ccc(F)cc1 | -6% | 0.96
CC(C)n1nnc2cc(S(=O)(=O)N3CCC[C@H](C(=O)NCc4cccc(Cl)c4)C3)ccc21 | -20% | 1.76
CCOC1CC(CO)(NC(=O)c2cc(C)no2)C1(C)C (stereo not drawn) | -19% | 2.39
COc1cc(-c2nc(=O)c(CCC(=O)N3CCN(C)CC3)n[nH]2)ccc1OCC1CCC1 | -5% | 0.84
COc1c(F)cc(CN2CCC(CNC(=O)c3cnn(C)c3)CC2)cc1F | 20% | -2.22
Cc1ccc(S(=O)(=O)NC[C@](C)(O)c2ccsc2)s1 | -13% | 2.47
C[C@@](CO)(CNCc1cnn2ccccc12)c1ccccc1 | 0% | -0.08
c1ccc(-c2noc(-c3ccc(N4CCN(c5ccccn5)CC4)nc3)n2)cc1 | 9% | -0.98
CCCn1nccc1S(=O)(=O)NC(CC)[C@H]1C[C@H](O)C1 (stereo partly drawn) | 10% | -1.33
CCc1ccc(S(=O)(=O)Cc2nc(-c3ccc(C(=O)NCc4ccc(Cl)cc4)cc3)oc2C)cc1 | -17% | 2.18
COc1cccc(-c2c(C(=O)O)nnn2-c2ccc3c(c2)OCO3)c1 | -17% | 1.8
C[C@H](Oc1ccccc1C(N)=O)C(F)(F)F | 1% | -0.09
CN1CCO[C@@H](CN(C)C(=O)c2ccc(C(F)(F)F)cc2N2CCCC2)C1 | -4% | 0.5
CN(C(=O)c1csc(=O)[nH]1)C1CCC(CO)CC1 (stereo not drawn) | -13% | 1.64
O=C(c1c[nH]c(=O)[nH]1)N1CCN(c2ncc(Cl)cn2)CC1 | -9% | 0.95
C(=C(C1CC1)C1CC1)c1nc(-c2ccncc2)no1 | 8% | -0.98
CC1CCC(C(=O)NCC2CCOC2)C2C(=O)N(c3ccccc3)C(=O)C12 (stereo not drawn) | 3% | -0.56
CCn1cnnc1CNC(=O)c1cc(Br)c[nH]1 | -11% | 1.55

Structure (SMILES) | % Inhibition | Z score
O=C(c1ccsc1)N1CC(Nc2ccncn2)C1 | -13% | 1.52
CN(Cc1cnccn1)Cc1nnc(-c2cccs2)o1 | 3% | -0.41
O=C(NC[C@H](OCCO)c1cccs1)Nc1cccs1 | -19% | 2.99
CC(=O)Nc1nc(Cc2nc(CC(C)C)nn2-c2ccccn2)n[nH]1 | 20% | -2.52
COc1ccc(CNC(=O)c2cnn3c(-c4ccc(C)c(C)c4)ccnc23)c(OC)c1 | 28% | -3.13
O=S(=O)(NCCc1c[nH]c2cc(F)ccc12)N1CCOCC1 | -17% | 3.28
Cn1nccc1S(=O)(=O)NC1(c2noc(C3CC3)n2)CCCC1 | -13% | 1.98
CCN1C[C@@H](CN(C)C(=O)c2ccc(CN3CCc4ccccc4C3)cc2)CC1=O | 4% | -0.93
Cc1ccc2ccccc2c1CN1C[C@@H]2CC[C@H]1CN(CC(=O)N(C)C)C2 | -4% | 0.69
CCOC(=O)c1c(CN2CCOCC2)n(-c2ccc(C)cc2)c2ccc(Oc3nccc(Nc4ccccc4)c3C#N)cc12 | 40% | -5.22
CC(C)N(C(=O)[C@H](C)OC(=O)CNC(=O)c1ccc(Cl)c(Cl)c1)C(C)C | -5% | 0.95
CC[C@H]1OCC[C@@H]1NC(=O)c1cccnc1C | -4% | 0.87
COc1cc2cc(C(=O)NCCOc3c(C)cccc3C)[nH]c2c(OC)c1OC | 0% | 0.01
COc1ccc(CCNC(=O)Cn2nc(C)c3ccccc32)cc1OC | -4% | 0.87
CC(C)N(CCN(C)C)C(=O)C(=O)Nc1c(F)cccc1F | -15% | 1.97
CN(Cc1nc(-c2ccncc2)no1)S(=O)(=O)[C@H]1CCS(=O)(=O)C1 | -21% | 1.88
O=C(NCC1(c2ccsc2)CCCC1)Nc1ccccc1 | -3% | 0.62
CC1CN(C(C)C)CC1NC(=O)c1cccc(CC#N)c1 (stereo not drawn) | -14% | 2.16
O=S(=O)(NCC1(OCCO)CCCC1)c1ccccc1 | -2% | 0.32
Cc1cccc(CN(Cc2cccc(C)n2)C[C@H]2CCCCO2)n1 | 90% | -9.86
COC[C@@H]1[C@H](C(=O)Nc2ccc(OC)nc2)CCC(=O)N1C | 4% | -0.5

Structure (SMILES) | % Inhibition | Z score
Cc1c(Cl)cccc1NC(=O)c1ccc2c(c1)N(C)C(=O)c1ccccc1O2 | -4% | 0.51
CC[C@H]1C(=O)N(CC)CCN1C(=O)c1csc(NC(C)=O)n1 | -5% | 0.63
Cn1cc(-c2ccccc2)cc1C(=O)N1CCCCC1 | 6% | -0.93
Cn1cc(CCC(=O)N(Cc2ccsc2)c2cccnc2)cn1 | -11% | 1.41
O=C1COc2ncc(C(=O)Nc3ccnn3C3CCC3)cc2N1 | -12% | 1.69
CCC(=O)N(CCN1CCOCC1)Cc1csc(COc2cc(C)cc(C)c2C)n1 | -5% | 0.64
Cc1ccc2ncccc2c1CN1CCC[C@@](O)(CO)CC1 | 9% | -1.77
OCc1nc(C2CCOCC2)nn1C1Cc2ccccc2C1 | -11% | 1.33
Cc1cc(C(=O)NC2CCCCCCC2)no1 | 2% | -0.25
CC1(CO)CCN(Cc2ccccc2OCCN2CCOCC2)CC1 | -16% | 1.59
Cc1c(CC(=O)N2CCC[C@H]2C(N)=O)c2c(n1Cc1ccccc1)CCCC2=O | 0% | -0.04
Cc1cc(NC2CC(N3CCOCC3)C2)nc(C)n1 (stereo not drawn) | -21% | 2.78
Cc1nnc(CNC(C)(C)CN2CCOCC2)s1 | 4% | -0.76
CCCN(Cc1cnn(C)c1)Cc1nnc(-c2ccc(F)cc2)o1 | -7% | 0.76
COc1ccc(NC(=O)C(=O)NC[C@@H](c2cccn2C)N(C)C)c(OC)c1 | 0% | 0.01
c1csc(N2CCC[C@H]2c2nc(-c3cncs3)no2)n1 | -12% | 1.53
Cc1ccnc(N2CC[C@@H](OC(C)(C)C)C2)n1 | -5% | 0.61
CN(C)c1ccc(S(=O)(=O)N2CCC[C@H]2c2nc(N(C)C)no2)cn1 | -3% | 0.25
CCOCCCNC(=O)C1CCN(C(=O)c2cc3oc(C)cc3n2Cc2c(F)cccc2Cl)CC1 | -1% | 0.06
CCC1=NCC(=O)Nc2cc3c(cc21)OCCO3 | -15% | 1.88
Cc1ccc(C)c(OCCOCCNC(C)(C)C)c1 | 1% | -0.18
